# Assay results published in the supplement of paper PMC8728848.
# Some of the results follow.
# Tests used:
# Assay in all cases: glycan array binding signal (z-score within array); higher = stronger binding
# Conditions in all cases: glycan notation: IUPAC condensed, linker removed
# Neu5Ac(a2-6)GalNAc = target: Neu5Ac(a2-6)GalNAc
# Summary of the method: (§1)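 Glycan array data came from 3228 arrays in the Consortium for Functional Glycomics database, and only arrays with an available protein sequence were kept. Glycan names were put into IUPAC-condensed notation, and columns mapping to the same glycan were averaged. The binding signal is a within-array Z-score, averaged across arrays of one protein sequence run at different concentrations or buffers and across linkers. A negative Z-score can be read as non-binding.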
# [1] = target: Neu5Ac(a2-6)GalNAc(b1-4)GlcNAc
# Summary of the method: as §1
# [2] = target: Neu5Ac(a2-6)GlcNAc(b1-4)GlcNAc
# Summary of the method: as §1
# [3] = target: Neu5Ac(a2-6)GlcNAc(b1-4)GlcNAc(b1-4)GlcNAc
# Summary of the method: as §1
# Neu5Ac(a2-8)Neu5Ac = target: Neu5Ac(a2-8)Neu5Ac
# Summary of the method: as §1
# [4] = target: Neu5Ac(a2-8)Neu5Ac(a2-3)Gal(b1-4)Glc
# Summary of the method: as §1
# [5] = target: Neu5Ac(a2-8)Neu5Ac(a2-3)[GalNAc(b1-4)]Gal(b1-4)Glc
# Summary of the method: as §1
# [6] = target: Neu5Ac(a2-8)Neu5Ac(a2-8)Neu5Ac
# Summary of the method: as §1
# [7] = target: Neu5Ac(a2-8)Neu5Ac(a2-8)Neu5Ac(a2-3)Gal(b1-4)Glc
# Summary of the method: as §1
# [8] = target: Neu5Ac(a2-8)Neu5Ac(a2-8)Neu5Ac(a2-3)[GalNAc(b1-4)]Gal(b1-4)Glc
# Summary of the method: as §1
# [9] = target: Neu5Ac(a2-8)Neu5Ac(a2-8)Neu5Ac(a2-8)Neu5Ac(a2-3)[GalNAc(b1-4)]Gal(b1-4)Glc
# Summary of the method: as §1
# [10] = target: Neu5Ac(b2-6)Gal(b1-4)GlcNAc
# Summary of the method: as §1
# Neu5Ac(b2-6)GalNAc = target: Neu5Ac(b2-6)GalNAc
# Summary of the method: as §1
# [11] = target: Neu5Ac9Ac(a2-3)Gal(b1-3)GlcNAc
# Summary of the method: as §1
# [12] = target: Neu5Ac9Ac(a2-3)Gal(b1-4)GlcNAc
# Summary of the method: as §1
# [13] = target: Neu5Ac9Ac(a2-6)Gal(b1-4)GlcNAc
# Summary of the method: as §1
# [14] = target: Neu5Gc(a2-3)Gal(b1-3)GlcNAc
# Summary of the method: as §1
# [15] = target: Neu5Gc(a2-3)Gal(b1-3)[Fuc(a1-4)]GlcNAc
# Summary of the method: as §1
# Neu5Gc(a2-3)Gal(b1-4)Glc = target: Neu5Gc(a2-3)Gal(b1-4)Glc
# Summary of the method: as §1
# [16] = target: Neu5Gc(a2-3)Gal(b1-4)GlcNAc
# Summary of the method: as §1
# [17] = target: Neu5Gc(a2-3)Gal(b1-4)[Fuc(a1-3)]GlcNAc
# Summary of the method: as §1
# [18] = target: Neu5Gc(a2-6)Gal(b1-4)GlcNAc
# Summary of the method: as §1
# Neu5Gc(a2-6)GalNAc = target: Neu5Gc(a2-6)GalNAc
# Summary of the method: as §1
# [19] = target: Neu5Gc(b2-6)Gal(b1-4)GlcNAc
# Summary of the method: as §1
binder,measurement,setting,value
"GALT1 615 (Arabidopsis thaliana), Q8L7F9 (protein) DPMRGSHHHHHHGMASMTGGQQMGRDLYDDDDKSRLQKPYITAAASVVVTPNTTLPMEWLRITLPDFMKEARNTQEAISGDDIAVVSGLFVEQNVSKEEREPLLTWNRLESLVDNAQSLVNGVDAIKEAGIVWESLVSAVEAKKLVDVNENQTRKGKEELCPQFLSKMNATEADGSSLKLQIPCGLTQGSSITVIGIPDGLVGSFRIDLTGQPLPGEPDPPIIVHYNVRLLGDKSTEDPVIVQNSWTASQDWGAEERCPKFDPDMNKKVDDLDECNKMVGGEINRTSSTSLQSNTSRGVPVAREASKHEKYFPFKQGFLSVATLRVGTEGMQMTVDGKHITSFAFRDTLEPWLVSEIRITGDFRLISILA",glycan array binding signal (z-score),Neu5Ac(a2-6)GalNAc,-0.429
same,glycan array binding signal (z-score),[1],-0.386
same,glycan array binding signal (z-score),[2],-0.215
same,glycan array binding signal (z-score),[3],-0.455
same,glycan array binding signal (z-score),Neu5Ac(a2-8)Neu5Ac,-0.287
same,glycan array binding signal (z-score),[4],-0.098
same,glycan array binding signal (z-score),[5],-0.085
same,glycan array binding signal (z-score),[6],-0.331
same,glycan array binding signal (z-score),[7],-0.294
same,glycan array binding signal (z-score),[8],-0.208
same,glycan array binding signal (z-score),[9],-0.246
same,glycan array binding signal (z-score),[10],-0.216
same,glycan array binding signal (z-score),Neu5Ac(b2-6)GalNAc,-0.345
same,glycan array binding signal (z-score),[11],-0.241
same,glycan array binding signal (z-score),[12],0.016
same,glycan array binding signal (z-score),[13],-0.313
same,glycan array binding signal (z-score),[14],-0.114
same,glycan array binding signal (z-score),[15],-0.232
same,glycan array binding signal (z-score),Neu5Gc(a2-3)Gal(b1-4)Glc,0.836
same,glycan array binding signal (z-score),[16],-0.065
same,glycan array binding signal (z-score),[17],-0.177
same,glycan array binding signal (z-score),[18],-0.416
same,glycan array binding signal (z-score),Neu5Gc(a2-6)GalNAc,0.146
same,glycan array binding signal (z-score),[19],-0.419
